# From PubChem BioAssay AID2675 (National Center for Advancing Translational Sciences (NCATS), 2010)
# About 100 (0.036%) of roughly 280,000 compounds were called active. The inconclusive results got no clear call from the source; some entries with a clear call stand among them for comparison. Calls come from the whole dose curve; as a rule, active = well fitted inhibition curve with a large enough effect in the signal ratio, with a control signal flat (not every such curve was filed as active); inconclusive = small, poorly fitted or top-dose-only effect, or effect the other way, or a change in a side signal; inactive = no such curve, though single readings can be large or run the other way; the % refers to the signal ratio. Where the call is inconclusive, the potency comes from a doubtful curve fit. A note “side channel” means that the fit belongs to a control or component signal, not to the main read-out.
# Target: Muscleblind-like protein 1 (Homo sapiens) (UniProt Q9NR56)
# Sequence of UniProt Q9NR56 (Q9NR56 whole entry, looked up): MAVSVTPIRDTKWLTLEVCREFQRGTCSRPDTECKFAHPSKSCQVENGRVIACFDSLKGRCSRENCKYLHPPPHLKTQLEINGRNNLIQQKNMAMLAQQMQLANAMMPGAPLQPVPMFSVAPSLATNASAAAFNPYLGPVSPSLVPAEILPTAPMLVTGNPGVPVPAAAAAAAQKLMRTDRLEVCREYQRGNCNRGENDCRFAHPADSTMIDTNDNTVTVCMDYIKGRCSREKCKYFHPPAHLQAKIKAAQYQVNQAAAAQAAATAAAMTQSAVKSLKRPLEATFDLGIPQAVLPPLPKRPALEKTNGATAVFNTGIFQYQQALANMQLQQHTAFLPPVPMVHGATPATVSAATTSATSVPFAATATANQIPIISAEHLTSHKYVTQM
# Test: qHTS Assay for Inhibitors of MBNL1-poly(CUG) RNA binding
# Settings: TR-FRET MBNL1-His/biotin-(CUG)12 binding, 665/545 ratio; activity change, negative = inhibition: at 57.5 µM (top of the series)
# In short: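 Ratiometric TR-FRET (665 over 545 nm, excitation 340 nm) tracks disruption of MBNL1-His/biotin-(CUG)12 complex after 60 min at room temperature, with compounds at 92 nM to 58 uM final.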
# % is set by controls: 0 for no effect and ±100 for the full control effect; potency is the fitted concentration of half-maximal effect; tags give direction and shape of the fitted curve or compound fluorescence and quenching.
SMILES,Potency,"activity change, negative = inhibition"
CS(=O)(=O)N1CCN(c2ccc([N+](=O)[O-])c(N3CCOCC3)c2)CC1,"inconclusive: 12.6 µM [quencher, side channel, partial curve]",–
Cc1ccccc1OCC(=O)N/N=C/c1ccc([N+](=O)[O-])o1,"inconclusive: 12.6 µM [activator, partial curve]",–
Cc1ccnc(SCc2ccc([N+](=O)[O-])cc2)n1,"inconclusive: 15.8 µM [quencher, side channel, partial curve]",–
COc1ccc(N2CC(C(=O)N/N=C/c3ccc([N+](=O)[O-])cc3)CC2=O)cc1 (configuration not stated),"inconclusive: 14.1 µM [quencher, partial curve]",–
COC(=O)c1ccc(-c2nc3cc(N)ccc3o2)cc1,"inconclusive: 0.708 µM [quencher, side channel, full curve, poor fit]",–
Cc1cc(C)n(C(=O)c2cccc([N+](=O)[O-])c2)n1,"inconclusive: 28.2 µM [quencher, side channel, single point]",–
COCCCNC(=O)CCCn1c(=O)c2ccccc2n(CC(=O)Nc2c(C)cc(C)cc2C)c1=O,"inconclusive: 22.4 µM [fluorescent, side channel, partial curve, poor fit]",–
OC(COc1ccc(Cl)cc1)CN1CCN(c2cccc(Cl)c2)CC1 (configuration not stated),–,inactive: -18.1%
O=C(CSc1nc2ccccc2[nH]1)Nc1ccc2c(c1)CCC2,"inconclusive: 1.26 µM [fluorescent, side channel, full curve, poor fit]",–
Cc1cccc(C)c1NC(=O)CN(C)S(=O)(=O)c1ccc(-c2ccc(=O)[nH]n2)s1,"inconclusive: 10 µM [quencher, side channel, partial curve]",–
O=C(Nc1cc(Cl)ccc1Cl)N1CCCC1,–,inactive: -16.6%
O=C(NS(=O)(=O)Oc1ccc(Cl)cc1)OC[C@@H]1CCCN2CCCC[C@H]12,"inconclusive: 6.31 µM [fluorescent, side channel, full curve, poor fit]",–
COc1cccc(C(=O)Nc2c(C(N)=O)oc3ccccc23)c1,"inconclusive: 0.1 µM [quencher, side channel, full curve, poor fit]",–
COc1ccc(NS(=O)(=O)c2cccc3nsnc23)cc1Cl,"inconclusive: 17.8 µM [quencher, side channel, partial curve]",–
Cc1ccsc1C=C1C(=O)c2ccccc2C1=O,"inconclusive: 14.1 µM [quencher, side channel, partial curve]",–
O=C(C1CCC(Cn2c(=S)[nH]c3ccccc3c2=O)CC1)N1CCN(c2ccccn2)CC1 (configuration not stated),–,inactive: -8.12%
O=C(N/N=C/c1ccc(Br)s1)c1ccccn1,"inconclusive: 8.91 µM [quencher, side channel, full curve]",–
CCOc1ccc(C2/C(=C(\O)c3cccc(OC)c3)C(=O)C(=O)N2c2cc(C)on2)cc1OC (configuration not stated),"inconclusive: 20 µM [quencher, side channel, single point]",–
CCN(CC)S(=O)(=O)c1ccc(/C=C/C(=O)OCC(=O)N(C)C)cc1,"inconclusive: 8.91 µM [quencher, side channel, partial curve]",–

SMILES,Potency,"activity change, negative = inhibition"
CCN1CCN(c2cc(C)c3cc(NC(=O)Cc4ccc(OC)c(OC)c4)ccc3n2)CC1,"inconclusive: 22.4 µM [quencher, side channel, single point]",–
CCCOc1ccc2c(CC)cc(=O)oc2c1C,–,inactive: -3.79%
CC(=O)Nc1ccc(N2C(=O)CSC2c2ccc([N+](=O)[O-])cc2)cc1 (configuration not stated),"inconclusive: 8.91 µM [quencher, side channel, partial curve]",–
O=C(/C=C/c1ccc(F)cc1)N1CCN(c2ccccn2)CC1,"inconclusive: 7.94 µM [fluorescent, side channel, partial curve, poor fit]",–
O=C(N/N=C/c1ccc(N2CCCC2)c([N+](=O)[O-])c1)c1cccnc1,"inconclusive: 10 µM [quencher, side channel, partial curve]",–
COc1cc(C(=O)NCCc2ccc(S(N)(=O)=O)cc2)cc(OC)c1OC,–,inactive: -0.918%
CCOC(=O)N1CCN(C2=C(NS(=O)(=O)c3ccc(C)cc3)C(=O)c3ccccc3C2=O)CC1,"inconclusive: 8.91 µM [quencher, side channel, partial curve]",–
O=C(NCc1cccnc1)c1ccc(-c2cccc(Cl)c2Cl)o1,–,inactive: 17.4%
Cc1cs/c(=N\N=C\c2ccc(O)cc2)n1Cc1ccco1,"inconclusive: 39.8 µM [quencher, side channel, single point]",–
CCn1nnc(NC(=O)c2ccc(-c3ccccc3[N+](=O)[O-])o2)n1,"inconclusive: 14.1 µM [quencher, side channel, partial curve]",–
CC(C)c1cc(C(=O)N/N=C/c2ccco2)n[nH]1,"inconclusive: 39.8 µM [quencher, single point]",–
CN(C)/C=N/c1cnc(C(=O)c2ccc(Cl)cc2)n1C,"inconclusive: 20 µM [quencher, side channel, partial curve]",–
COc1ccc(CCNS(=O)(=O)c2ccc(-c3ccc(=O)[nH]n3)o2)cc1OC,"inconclusive: 31.6 µM [quencher, side channel, single point]",–
CC(=O)N(C)c1ccc(NC(=O)/C=C/c2ccccc2Cl)cc1,"inconclusive: 17.8 µM [quencher, side channel, partial curve]",–
COc1ccc([N+](=O)[O-])cc1NC(=O)COC(C)=O,"inconclusive: 25.1 µM [quencher, side channel, partial curve]",–
Cc1ccc(CNC(=O)CS(=O)(=O)CC(=O)O)cc1,–,inactive: -2.7%
Cc1cc(C)cc(N=c2c([N+](=O)[O-])nn(-c3ccc(Cl)cc3)n2O)c1,"inconclusive: 3.16 µM [quencher, side channel, full curve]",–
COc1ccc(-n2ncc(Cl)c(Cl)c2=O)cc1,"inconclusive: 5.62 µM [quencher, side channel, partial curve]",–
